Laboratory results as given in PMC4336329 (PLoS ONE, 2015).
About 2,200 (0.71%) of roughly 310,000 compounds showed an effect of 50% or more. Effects have a minus sign here. The list shows a part of the results.

Target: human ether-à-go-go-related gene (hERG) potassium channel (human, UniProt Q12809)
Experiment: primary screen, population patch clamp on CHO cells stably expressing hERG

Chain of human ether-à-go-go-related gene (hERG) potassium channel (Q12809 whole entry, looked up): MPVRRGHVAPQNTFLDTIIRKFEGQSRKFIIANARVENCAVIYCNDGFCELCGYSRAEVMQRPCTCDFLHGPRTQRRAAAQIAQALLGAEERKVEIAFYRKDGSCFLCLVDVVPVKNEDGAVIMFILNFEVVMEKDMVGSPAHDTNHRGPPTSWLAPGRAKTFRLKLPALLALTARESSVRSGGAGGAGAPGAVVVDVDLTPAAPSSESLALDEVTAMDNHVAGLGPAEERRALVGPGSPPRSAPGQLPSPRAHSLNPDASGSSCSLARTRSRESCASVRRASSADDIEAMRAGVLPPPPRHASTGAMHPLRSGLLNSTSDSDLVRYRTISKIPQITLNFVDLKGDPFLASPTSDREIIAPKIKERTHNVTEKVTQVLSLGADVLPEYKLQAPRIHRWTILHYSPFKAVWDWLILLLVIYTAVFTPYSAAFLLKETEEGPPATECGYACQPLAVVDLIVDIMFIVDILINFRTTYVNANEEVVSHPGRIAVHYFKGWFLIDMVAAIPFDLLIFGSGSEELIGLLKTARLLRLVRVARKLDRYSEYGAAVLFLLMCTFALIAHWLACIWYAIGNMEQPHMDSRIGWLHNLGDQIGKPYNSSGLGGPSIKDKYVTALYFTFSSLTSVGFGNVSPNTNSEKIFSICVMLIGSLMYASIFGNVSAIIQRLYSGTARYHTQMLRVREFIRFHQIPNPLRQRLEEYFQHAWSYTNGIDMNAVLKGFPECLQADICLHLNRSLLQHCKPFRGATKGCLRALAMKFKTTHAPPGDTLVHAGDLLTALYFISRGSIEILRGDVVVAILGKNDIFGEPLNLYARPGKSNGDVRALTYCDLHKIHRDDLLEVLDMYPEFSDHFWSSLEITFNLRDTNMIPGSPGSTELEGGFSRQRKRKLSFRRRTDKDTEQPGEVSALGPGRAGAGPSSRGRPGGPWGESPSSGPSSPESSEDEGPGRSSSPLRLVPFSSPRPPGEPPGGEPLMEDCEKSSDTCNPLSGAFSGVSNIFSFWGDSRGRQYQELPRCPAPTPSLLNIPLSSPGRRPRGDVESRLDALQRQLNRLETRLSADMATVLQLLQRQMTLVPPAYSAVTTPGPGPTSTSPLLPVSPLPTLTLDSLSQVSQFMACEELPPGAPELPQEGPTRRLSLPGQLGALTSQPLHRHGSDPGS

SMILES	hERG current change (%, negative = inhibition) at 1uM [%]
CCn1c(=O)[nH]c2cc(Cl)c(Cl)cc21	-14.2
CCCOc1ccccc1N1C(=O)CC(N2CCOCC2)C1=O (stereo not drawn)	7.58
COc1ccccc1N1CCN(C(CNC(=O)c2ccc3c(c2)OCO3)c2cccnc2)CC1 (stereo not drawn)	3.12
COc1cc2c(cc1OC)/C(=C/C(=O)c1ccccc1)NCC2	13.2
CC1=CCC2C(=O)N(c3cc(C)on3)C(=O)C2C1 (stereo not drawn)	-4.4
O=[N+]([O-])c1ccc(N2CCN(CCOCCO)CC2)c([N+](=O)[O-])c1	-12.6
CC1CN(C(=O)Nc2ccc3snnc3c2)c2ccccc21 (stereo not drawn)	6.96
CCOCCCN1CN(Cc2ccco2)CNC1=S	13.5
O=C(NCc1ccccn1)c1ccc(Cn2cc(Br)cn2)o1	9.57
Cn1nc(-c2ccc(C(=O)Nc3cccc(Cl)c3)cc2)c2ccccc2c1=O	5.56
COc1ccc(Cl)cc1NC(=O)CN1C(=O)NC2(CCCC2)C1=O	14.5
CCN(C(=O)COC(=O)c1cccc(-n2cnnn2)c1)C1CCCCC1	17.6
O=C(/C=C\NCC(=O)c1ccccc1)c1ccccc1	-2.05
Cc1ccc(C(=O)Nc2ccc(Oc3ccc(C(=O)O)c(C(=O)O)c3)cc2)cc1C	0.709
COc1ccc(NC(=O)CSc2nnc(-c3ccco3)n2N)cc1Cl	12
CCCCCCCCCOC(=O)C1N2C(=O)[C@@H](NC(=O)COc3ccccc3)[C@H]2SC1(C)C (stereo partly drawn)	6.58
O=C(Nc1nc(-c2ccco2)cs1)c1ccccc1	9.77
c1ccc(-c2nnc(CSc3nncs3)o2)cc1	7.17
COc1ccc(N2CC(C(=O)NCc3ccco3)CC2=O)cc1 (stereo not drawn)	11.2

SMILES	hERG current change (%, negative = inhibition) at 1uM [%]
Cc1noc(C)c1C(=O)NCc1ccccc1	17
CN(C(=O)c1c[nH]c(=O)cc1C(F)(F)F)c1ccc(Cl)c(Cl)c1	8.51
CC1CN(Cc2ccccc2)c2nc3c(c(=O)n(CC(=O)O)c(=O)n3C)n2C1 (stereo not drawn)	18
CN(C)S(=O)(=O)c1ccc(C(=O)OC2CCOC2=O)cc1 (stereo not drawn)	12.8
O=C(COc1ccc(F)cc1)c1ccc2c(c1)CCCC2	14.5
C#C[C@]1(O)CC[C@H]2[C@@H]3CCC4=Cc5nc6nc7ccccc7n6cc5C[C@]4(C)[C@H]3CC[C@@]21C	-9.33
O=C(NO)c1ccccc1O	12.8
COc1ccc(C(=O)N/N=C/c2ccc(N3CCOCC3)o2)cc1OC	3.78
Cc1ccc(/C=C2\CC(C)CC3=C2NC(=S)NC3c2ccc(C)cc2)cc1 (stereo not drawn)	-7.34
COC(=O)Nc1ccc(S(=O)(=O)NC2CCS(=O)(=O)C2)cc1 (stereo not drawn)	15
COc1ccccc1N1CCN(c2ncnc3sc(C)c(-c4ccccc4)c23)CC1	15.1
Cc1ccc(N2C(=O)c3n[nH]c(C)c3C2c2ccccn2)cc1 (stereo not drawn)	7.52
CCOC(=O)C1=C(C)NC(=O)NC1c1cc(Br)c(O)c(OC)c1 (stereo not drawn)	-1.87
O=[N+]([O-])c1cc([N+](=O)[O-])c(Oc2c(F)ccc(F)c2F)cc1NN1CCCCC1	12.8
COc1ccc([C@H]2CC(=O)C=C(c3cc(C=O)ccc3OC)C2)cc1	10.4
COc1ccc(C2N(C(=O)N(C)C)CCN2S(=O)(=O)c2ccc(OC)cc2)cc1 (stereo not drawn)	-2.39
COc1cccc(-c2nnc(SCc3ccc(C#N)cc3)n2Cc2ccco2)c1	-22
COc1ccc(NS(=O)(=O)c2cccc(NC(=O)c3cnccn3)c2)cc1Br	10.3
Cc1ccc(NC(=O)c2cccc3c2C(=O)N(C2CCCCC2)C3)c(Cl)c1	10.4

SMILES	hERG current change (%, negative = inhibition) at 1uM [%]
S=C(N/N=C1\CCc2ccccc21)NC1CCCCC1	12.4
C/C(CCC1CC(C)(C)OC1=O)=N\NC(N)=S (stereo not drawn)	-0.472
O=C(OCc1ccc(Cl)c(Cl)c1)c1ccccn1	5.25
CCOC(=O)N1CCN(C(=O)CSCC(=O)Nc2nc(-c3ccc4c(c3)OCO4)cs2)CC1	-5.62
Cc1cc(-c2ccccc2)nc(N(C)NC(=O)c2cccc(C(F)(F)F)c2)c1S(C)(=O)=O	7.36
Cn1c(=O)c2c(nc(NCCCO)n2C/C=C/c2ccccc2)n(C)c1=O	6.68
COc1ccc(OC)c2sc(NC(=O)C3COc4ccccc4O3)nc12 (stereo not drawn)	0.426
COc1ccc(NC(=O)CCCN2C(=O)CCC2=O)cc1Cl	9.43
CCOC(=O)C1CCN(CC(=O)Nc2ccc(OC)c(Cl)c2)CC1	-2.11
CCCCN(C(=O)NC(=O)Nc1cc(C)ccc1C)S(C)(=O)=O	13.9
Cc1ccn2c(=O)nc(SCC(=O)Nc3cc(C)on3)nc2c1	1.05
O=C(COC(=O)c1ccc(Br)o1)Nc1cccc(S(=O)(=O)N2CCCCCC2)c1	2.14
Cc1c(-c2nc(-c3ccncc3)no2)cccc1[N+](=O)[O-]	16.2
CC(CN1CCOCC1)OC(=O)c1ccc2c(c1)OCCO2.Cl (stereo not drawn)	2.72
O=C(NCCCn1ccnc1)c1c(F)cccc1F	13.9
Cc1cc(C)n2nc(SCC(=O)Nc3c(C)nn(-c4ccccc4)c3C)nc2n1	8.62
Cc1c(CC(Cl)(Cl)Cl)c2c(n1O)CC(C)(C)CC2=O	6.51
CS(=O)(=O)N1CCN(C(=O)C(Sc2ccccc2)c2ccccc2)CC1 (stereo not drawn)	-4.86
Cc1cccc(N(Cc2ccccc2)C(=O)c2cc(S(=O)(=O)N3CCOCC3)ccc2F)c1	12.3
